This continues a long series; more values of the same kind are listed elsewhere.
Assays:
Type in all cases: in vivo
Details in all cases: 7 days after treatment
[1] = test system: Brassica napus wildtype; assay: 6-well plate injury test, seeds on vermiculite
Procedure: (§1) Transgenic Brassica napus plants are assayed for improved tolerance to azine herbicides like e. g. 6-cyclopentyl-N4-(2,3,4,5,6-pentafluorophenyl)-1,3,5-triazine-2,4-diamine in 6-well plates. Therefore, 5-6 T1 seeds are sown on vermiculite and watered with half-strength murashige skoog nutrient solution, pH 5.8 (Murashige and Skoog (1962) Physiologia Plantarum 15: 473-497). Compounds are dissolved in dimethylsulfoxid (DMSO) and added to the medium (final DMSO concentration 0.1%). Multi well plates are incubated in a growth chamber at 22° C., 75% relative humidity and 110 μmol Phot*m^−2*s^−1 with 14: 10 h light: dark photoperiod. Growth inhibition is evaluated seven to ten days after seeding in comparison to wild type plants. Plant injury is rated on a scale of 0% to 100%, 0% being no injury and 100% being complete death.

[2] = test system: Brassica napus expressing BnaAnng01240D (SEQ ID 20) variant S1041L; assay: Greenhouse herbicide tolerance, post emergent
Procedure: (§2) T1/T2 transgenic plants of Brassica napus containing cellulose synthase sequences or mutated gene variants thereof are tested for improved tolerance to herbicides in greenhouse studies with azine herbicides. For the pre-emergence treatment, the herbicides are applied directly after sowing by means of finely distributing nozzles. The containers are irrigated gently to promote germination and growth and subsequently covered with transparent plastic hoods until the plants have rooted. This cover causes uniform germination of the test plants, unless this has been impaired by the herbicides. For post emergence treatment, the test plants are first grown to a height of 3 to 15 cm, depending on the plant habit, and only then treated with the herbicides. For this purpose, the test plants are either sown directly, and grown in the same containers or they are first grown separately and transplanted into the test containers a few days prior to treatment.
(§3) Herbicide injury evaluations are taken at 1, 2 and 3 weeks after treatment. Plant biomass reduction is rated on a scale of 0% to 100%, 0% being no reduction of biomass compared to untreated control, and 100% being complete absence of biomass.

[3] = test system: Brassica napus expressing BnaA01g04600D (SEQ ID 21) variant G1012R; assay: 6-well plate injury test, T1 seeds on vermiculite
Procedure: as §1

[4] = test system: Brassica napus expressing BnaA03g52020D (SEQ ID 15) variant G1015R; assay: 6-well plate injury test, T1 seeds on vermiculite
Procedure: as §1

[5] = test system: Brassica napus wildtype; assay: Greenhouse herbicide tolerance, pre emergent
Procedure: as §2, §3

[6] = test system: Brassica napus expressing BnaA01g04600D (SEQ ID 21) variant G1012R; assay: Greenhouse herbicide tolerance, pre emergent
Procedure: as §2, §3

Nc1nc(Nc2c(F)c(F)c(F)c(F)c2F)nc(C2CCCC2)n1 [6-cyclopentyl-N4-(2,3,4,5,6-pentafluorophenyl)-1,3,5-triazine-2,4-diamine] was tested. Which average phytotox value ([1]; 5*10^-8M) did it give?
Its average phytotox value is 75%.

And the average phytotox value ([1]; 10^-6M)?
The average phytotox value was 91%.

What about the average phytotox value ([1]; 10^-7M) of the same molecule?
The average phytotox value was 80%.

And the average phytotox value ([1]; 10^-8M)?
Its average phytotox value is 46%.

What about the average phytotox value ([1]; 10^-9M) of the same molecule?
Its average phytotox value is 4%.

And the average phytotox value ([2]; 3.9 g/ha)?
The average phytotox value was 7%.

What about the average phytotox value ([2]; 7.8 g/ha) of the same molecule?
Its average phytotox value is 6%.

What about the average phytotox value ([2]; 15.6 g/ha) of the same molecule?
Its average phytotox value is 15%.

What about the average phytotox value ([2]; 31.25 g/ha) of the same molecule?
The average phytotox value was 29%.

What about the average phytotox value ([3]; BnaA01g04600D G1012R event 1, 5*10^-8M) of the same molecule?
Its average phytotox value is 30%.

What about the average phytotox value ([3]; BnaA01g04600D G1012R event 1, 10^-6M) of the same molecule?
Its average phytotox value is 80%.

What about the average phytotox value ([3]; BnaA01g04600D G1012R event 1, 10^-7M) of the same molecule?
Its average phytotox value is 50%.

What about the average phytotox value ([3]; BnaA01g04600D G1012R event 1, 10^-8M) of the same molecule?
Its average phytotox value is 10%.

And the average phytotox value ([3]; BnaA01g04600D G1012R event 1, 10^-9M)?
The average phytotox value was 0%.

And the average phytotox value ([3]; BnaA01g04600D G1012R event 2, 5*10^-8M)?
The average phytotox value was 40%.

What about the average phytotox value ([3]; BnaA01g04600D G1012R event 2, 10^-6M) of the same molecule?
The average phytotox value was 85%.

What about the average phytotox value ([3]; BnaA01g04600D G1012R event 2, 10^-7M) of the same molecule?
Its average phytotox value is 70%.

And the average phytotox value ([3]; BnaA01g04600D G1012R event 2, 10^-8M)?
The average phytotox value was 10%.

What about the average phytotox value ([3]; BnaA01g04600D G1012R event 2, 10^-9M) of the same molecule?
The average phytotox value was 0%.

What about the average phytotox value ([3]; BnaA01g04600D G1012R event 3, 5*10^-8M) of the same molecule?
Its average phytotox value is 50%.

What about the average phytotox value ([3]; BnaA01g04600D G1012R event 3, 10^-6M) of the same molecule?
The average phytotox value was 85%.

And the average phytotox value ([3]; BnaA01g04600D G1012R event 3, 10^-7M)?
The average phytotox value was 75%.

What about the average phytotox value ([3]; BnaA01g04600D G1012R event 3, 10^-8M) of the same molecule?
Its average phytotox value is 10%.

And the average phytotox value ([3]; BnaA01g04600D G1012R event 3, 10^-9M)?
The average phytotox value was 0%.

And the average phytotox value ([4]; BnaA03g52020D G1015R event 1, 5*10^-8M)?
The average phytotox value was 50%.

What about the average phytotox value ([4]; BnaA03g52020D G1015R event 1, 10^-6M) of the same molecule?
Its average phytotox value is 85%.

And the average phytotox value ([4]; BnaA03g52020D G1015R event 1, 10^-7M)?
Its average phytotox value is 75%.

And the average phytotox value ([4]; BnaA03g52020D G1015R event 1, 10^-8M)?
Its average phytotox value is 0%.

And the average phytotox value ([4]; BnaA03g52020D G1015R event 1, 10^-9M)?
Its average phytotox value is 0%.

And the average phytotox value ([4]; BnaA03g52020D G1015R event 2, 5*10^-8M)?
The average phytotox value was 60%.

What about the average phytotox value ([4]; BnaA03g52020D G1015R event 2, 10^-6M) of the same molecule?
Its average phytotox value is 80%.

What about the average phytotox value ([4]; BnaA03g52020D G1015R event 2, 10^-7M) of the same molecule?
Its average phytotox value is 75%.

And the average phytotox value ([4]; BnaA03g52020D G1015R event 2, 10^-8M)?
The average phytotox value was 0%.

What about the average phytotox value ([4]; BnaA03g52020D G1015R event 2, 10^-9M) of the same molecule?
Its average phytotox value is 0%.

What about the average phytotox value ([4]; BnaA03g52020D G1015R event 3, 5*10^-8M) of the same molecule?
The average phytotox value was 65%.

What about the average phytotox value ([4]; BnaA03g52020D G1015R event 3, 10^-6M) of the same molecule?
Its average phytotox value is 80%.

And the average phytotox value ([4]; BnaA03g52020D G1015R event 3, 10^-7M)?
The average phytotox value was 70%.

And the average phytotox value ([4]; BnaA03g52020D G1015R event 3, 10^-8M)?
Its average phytotox value is 0%.

And the average phytotox value ([4]; BnaA03g52020D G1015R event 3, 10^-9M)?
Its average phytotox value is 0%.

What about the average phytotox value ([5]; 3.9 g/ha) of the same molecule?
Its average phytotox value is 26%.

What about the average phytotox value ([5]; 7.8 g/ha) of the same molecule?
The average phytotox value was 21%.

And the average phytotox value ([5]; 15.6 g/ha)?
The average phytotox value was 52%.

And the average phytotox value ([6]; 1.95 g/ha)?
The average phytotox value was 26%.

What about the average phytotox value ([6]; 3.9 g/ha) of the same molecule?
The average phytotox value was 18%.

And the average phytotox value ([6]; 7.8 g/ha)?
Its average phytotox value is 0%.

What about the average phytotox value ([6]; 15.6 g/ha) of the same molecule?
The average phytotox value was 16%.
